Results published in the supplement of paper PMC10338343.
± gives the standard deviation. The entries are a selection whose mix differs from that of the whole data set.

Each sequence was assayed on MIWI (PIWIL1) piRISC loaded with L1MC piRNA (30 nt) (assay: pre-steady-state target cleavage rate (min^-1); MIWI and MILI are mouse PIWI proteins and EfPiwi is from a freshwater sponge; tags in brackets are library labels; higher = faster piRNA-guided slicing of the target). Settings: guide: L1MC piRNA 5'p-UAACUAAAUACUAUGCAAGCUGUAGGUCCU; auxiliary factor: 500 nM mouse GTSF1.
Method in brief: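 Active affinity-purified piRISC carrying one synthetic guide (1 nM) was mixed with a transcribed, DNA-blocked target RNA library […] in HEPES–potassium acetate buffer at 33 °C for 0–8 or 0–960 min, with or without 500 nM GTSF1 partner protein. Uncleaved targets were then sequenced and normalised to depth and to weakly complementary targets. Three trials were pooled, and k3 was capped at 0.0001 min^-1. A burst-and-steady-state fit was applied to obtain the pre-steady-state cleavage rate.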
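Further: 1 nM active piRISC with 0.1 nM target library at 33 °C single turnover.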

Row | Sequence | pre-steady-state target cleavage rate
1 | UCCUGGAUGAGCUUGCGUAGUAUUUAGUUA | 0.898 ± 0.044
2 | UCCUGGAUCGCUUGCAUAGUAUUUAGUUA | 0.968 ± 0.058
3 | UCCUGGAUGAGCUUGCAUAGUAAUUAGUUA | 0.434 ± 0.035
4 | UCCUCCUACAGCUUGCUUAGUAUUUAGAUA | 0.378 ± 0.038
5 | AGGACCUACUGCUUGCAUAGUAUUUAGAAA | 0.387 ± 0.045
6 | UGGACCUACAGCUUGCAUAGUCUUUAGUUA | 0.884 ± 0.048
7 | AGGACCUAGAGCUUGCAUAGAAUUUAGUUA | 0.246 ± 0.021
8 | UCCUGCUACAGCUUGCAUAGUAUUUAGUCUA | 0.156 ± 0.025
9 | UCCUGGAACAGCUUGCAUAGUCAUUUAGUUA | 0.017 ± 0.0053
10 | UCCUGGAUCAGCUUGCAUAGUAUAAAGUUA | 0.414 ± 0.032
11 | UCCUCCUACAGCUUGCAUAGAAUUUAGUUA | 0.464 ± 0.042
12 | UGGACCUACAGCUUGGAUAGUAUUUACAAA | 0.0553 ± 0.011
13 | UCCUGGUACAGCUUGCAUAGUAUUUAAUUA | 0.192 ± 0.039
14 | UCCUGGAACAGGUUGCAUAGUAAUUAGUUA | 0.567 ± 0.047
15 | UCCUGGAUCAGCUUGCAUAGUAUUAGUUA | 0.00982 ± 0.005
16 | UCCUGGAACAGCUUGCAUAGUAUUUUCAUA | 0.193 ± 0.034
